{"source": "the supplement of paper PMC8728848", "binders": {"B1": {"name": "Lmo1413 (Listeria monocytogenes), Q8Y783 (protein)", "chain": "MKHAKKSLFTFIIFMTILSITFNPFSAKAAPLMLNLPAPQVDQLYIGDDYITGKLQQEVPMHYPGNAAYVLFNNKQYNITDYTVENDVNFRLKLPKTLEAGDTLNYFTITGNVLDPVAYPGQESYKLAGPFSPIEKANIQVNYVDETNQTLATSDTLSGKLGETYTTSPKAIDGYQVKETPTNATGTYTTNTETIQINYVYEKTAVEGANVSVEYINEATNESIAPTETLSGKIGTTFQAEVKEIDGYELSQVPSNQSGTYTDQTQSVIFKYKKITTPDEVAKDVTVTYKDTKGNQLADPVILKGDIGSTFETEAKSFKGYKLTKTPSNHSSVFTSDSQEVEYVYSKDDAVITPPVTPVNPDKPIINPVKPVNPATSTVPNKNISKKNTTKTVNQTGKTSTALQLPKTGDSENNLPLIIGVSLLISGVYIFTTRRKRVK"}}, "assay_in_all_cases": "glycan array binding signal (z-score within array); higher = stronger binding", "details_in_all_cases": "glycan notation: IUPAC condensed, linker removed", "key": {"[1]": {"target": "GlcNAc(b1-3)Gal(b1-4)GlcNAc(b1-3)Gal(b1-4)GlcNAc", "summary_of_the_method": "(§1)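 Glycan array binding is given as a within-array Z-score, which can be read as non-binding when negative. The arrays, 3228 of them, came from the Consortium for Functional Glycomics database and were retained only where the protein sequence was available. Z-scores were averaged across arrays of the same protein sequence at different concentrations or buffers and across linkers.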"}, "GlcNAc(b1-3)GalNAc": {"target": "GlcNAc(b1-3)GalNAc", "summary_of_the_method": "as §1"}, "GlcNAc(b1-3)Man": {"target": "GlcNAc(b1-3)Man", "summary_of_the_method": "as §1"}, "[2]": {"target": "GlcNAc(b1-3)[GlcNAc(b1-4)][GlcNAc(b1-6)]GlcNAc", "summary_of_the_method": "as §1"}, "[3]": {"target": "GlcNAc(b1-3)[GlcNAc(b1-6)]Gal(b1-4)GlcNAc", "summary_of_the_method": "as §1"}, "[4]": {"target": "GlcNAc(b1-3)[GlcNAc(b1-6)]GalNAc", "summary_of_the_method": "as §1"}, "[5]": {"target": "GlcNAc(b1-4)Gal(b1-4)GlcNAc", "summary_of_the_method": "as §1"}, "GlcNAc(b1-4)GlcNAc": {"target": "GlcNAc(b1-4)GlcNAc", "summary_of_the_method": "as §1"}, "[6]": {"target": "GlcNAc(b1-4)GlcNAc(b1-4)GlcNAc", "summary_of_the_method": "as §1"}, "[7]": {"target": "GlcNAc(b1-4)GlcNAc(b1-4)GlcNAc(b1-4)GlcNAc(b1-4)GlcNAc", "summary_of_the_method": "as §1"}, "[8]": {"target": "GlcNAc(b1-4)GlcNAc(b1-4)GlcNAc(b1-4)GlcNAc(b1-4)GlcNAc(b1-4)GlcNAc", "summary_of_the_method": "as §1"}, "[9]": {"target": "GlcNAc(b1-4)[GlcNAc(b1-6)]GalNAc", "summary_of_the_method": "as §1"}, "[10]": {"target": "GlcNAc(b1-6)Gal(b1-4)GlcNAc", "summary_of_the_method": "as §1"}, "GlcNAc(b1-6)GalNAc": {"target": "GlcNAc(b1-6)GalNAc", "summary_of_the_method": "as §1"}, "GlcNAc3Prop(b1-4)GlcNAc": {"target": "GlcNAc3Prop(b1-4)GlcNAc", "summary_of_the_method": "as §1"}, "[11]": {"target": "GlcNAc6S(b1-3)Gal(b1-4)GlcNAc", "summary_of_the_method": "as §1"}, "Kdn(a2-3)Gal(b1-3)GalNAc": {"target": "Kdn(a2-3)Gal(b1-3)GalNAc", "summary_of_the_method": "as §1"}, "Kdn(a2-3)Gal(b1-3)GlcNAc": {"target": "Kdn(a2-3)Gal(b1-3)GlcNAc", "summary_of_the_method": "as §1"}, "Kdn(a2-3)Gal(b1-4)Glc": {"target": "Kdn(a2-3)Gal(b1-4)Glc", "summary_of_the_method": "as §1"}, "Kdn(a2-3)Gal(b1-4)GlcNAc": {"target": "Kdn(a2-3)Gal(b1-4)GlcNAc", "summary_of_the_method": "as §1"}, "[12]": {"target": "Kdn(a2-3)Gal(b1-4)[Fuc(a1-3)]GlcNAc", "summary_of_the_method": "as §1"}, "Kdn(a2-6)Gal(b1-4)GlcNAc": {"target": "Kdn(a2-6)Gal(b1-4)GlcNAc", "summary_of_the_method": "as §1"}, "[13]": {"target": "Man(a1-2)Man(a1-2)Man(a1-3)Man", "summary_of_the_method": "as §1"}, "[14]": {"target": "Man(a1-2)Man(a1-2)Man(a1-6)[Man(a1-3)]Man", "summary_of_the_method": "as §1"}, "Man(a1-2)Man(a1-3)Man": {"target": "Man(a1-2)Man(a1-3)Man", "summary_of_the_method": "as §1"}, "[15]": {"target": "Man(a1-2)Man(a1-3)[Man(a1-2)Man(a1-6)]Man", "summary_of_the_method": "as §1"}, "[16]": {"target": "Man(a1-2)Man(a1-3)[Man(a1-2)Man(a1-6)]Man(a1-6)[Man(a1-2)Man(a1-2)Man(a1-3)]Man", "summary_of_the_method": "as §1"}, "[17]": {"target": "Man(a1-2)Man(a1-3)[Man(a1-2)Man(a1-6)]Man(a1-6)[Man(a1-2)Man(a1-2)Man(a1-3)]Man(b1-4)GlcNAc(b1-4)GlcNAc", "summary_of_the_method": "as §1"}, "[18]": {"target": "Man(a1-2)Man(a1-3)[Man(a1-6)]Man(a1-6)[Man(a1-2)Man(a1-3)]Man(b1-4)GlcNAc(b1-4)GlcNAc", "summary_of_the_method": "as §1"}, "[19]": {"target": "Man(a1-2)Man(a1-6)[Man(a1-3)]Man(a1-6)[Man(a1-2)Man(a1-2)Man(a1-3)]Man", "summary_of_the_method": "as §1"}, "[20]": {"target": "Man(a1-2)Man(a1-6)[Man(a1-3)]Man(a1-6)[Man(a1-2)Man(a1-2)Man(a1-3)]Man(b1-4)GlcNAc(b1-4)GlcNAc", "summary_of_the_method": "as §1"}, "Man(a1-3)[Man(a1-6)]Man": {"target": "Man(a1-3)[Man(a1-6)]Man", "summary_of_the_method": "as §1"}, "[21]": {"target": "Man(a1-3)[Man(a1-6)]Man(a1-6)[Man(a1-2)Man(a1-3)]Man(b1-4)GlcNAc(b1-4)GlcNAc", "summary_of_the_method": "as §1"}, "[22]": {"target": "Man(a1-3)[Man(a1-6)]Man(a1-6)[Man(a1-3)]Man", "summary_of_the_method": "as §1"}, "[23]": {"target": "Man(a1-3)[Man(a1-6)]Man(a1-6)[Man(a1-3)]Man(b1-4)GlcNAc(b1-4)GlcNAc", "summary_of_the_method": "as §1"}, "[24]": {"target": "Man(a1-3)[Man(a1-6)]Man(b1-4)GlcNAc(b1-4)GlcNAc", "summary_of_the_method": "as §1"}, "Man(a1-6)Man": {"target": "Man(a1-6)Man", "summary_of_the_method": "as §1"}, "Man(b1-4)GlcNAc": {"target": "Man(b1-4)GlcNAc", "summary_of_the_method": "as §1"}, "Neu5Ac(a2-3)Gal": {"target": "Neu5Ac(a2-3)Gal", "summary_of_the_method": "as §1"}, "[25]": {"target": "Neu5Ac(a2-3)Gal(b1-3)GalNAc", "summary_of_the_method": "as §1"}, "[26]": {"target": "Neu5Ac(a2-3)Gal(b1-3)GalNAc(b1-3)Gal(a1-4)Gal(b1-4)Glc", "summary_of_the_method": "as §1"}, "[27]": {"target": "Neu5Ac(a2-3)Gal(b1-3)GalNAc(b1-4)[Neu5Ac(a2-3)]Gal(b1-4)Glc", "summary_of_the_method": "as §1"}, "[28]": {"target": "Neu5Ac(a2-3)Gal(b1-3)GalNAc6S", "summary_of_the_method": "as §1"}, "[29]": {"target": "Neu5Ac(a2-3)Gal(b1-3)GlcNAc", "summary_of_the_method": "as §1"}, "[30]": {"target": "Neu5Ac(a2-3)Gal(b1-3)GlcNAc(b1-2)Man(a1-3)[Neu5Ac(a2-3)Gal(b1-3)GlcNAc(b1-2)Man(a1-6)]Man(b1-4)GlcNAc(b1-4)GlcNAc", "summary_of_the_method": "as §1"}}, "note": "Some of the results follow.", "data": [{"binder": "B1", "values": [{"measurement": "glycan array binding signal (z-score)", "setting": "[1]", "value": -0.107}, {"measurement": "glycan array binding signal (z-score)", "setting": "GlcNAc(b1-3)GalNAc", "value": -0.111}, {"measurement": "glycan array binding signal (z-score)", "setting": "GlcNAc(b1-3)Man", "value": 0.036}, {"measurement": "glycan array binding signal (z-score)", "setting": "[2]", "value": 0.087}, {"measurement": "glycan array binding signal (z-score)", "setting": "[3]", "value": 0.208}, {"measurement": "glycan array binding signal (z-score)", "setting": "[4]", "value": -0.092}, {"measurement": "glycan array binding signal (z-score)", "setting": "[5]", "value": 0.117}, {"measurement": "glycan array binding signal (z-score)", "setting": "GlcNAc(b1-4)GlcNAc", "value": -0.08}, {"measurement": "glycan array binding signal (z-score)", "setting": "[6]", "value": 0.095}, {"measurement": "glycan array binding signal (z-score)", "setting": "[7]", "value": -0.093}, {"measurement": "glycan array binding signal (z-score)", "setting": "[8]", "value": -0.014}, {"measurement": "glycan array binding signal (z-score)", "setting": "[9]", "value": -0.016}, {"measurement": "glycan array binding signal (z-score)", "setting": "[10]", "value": 0.859}, {"measurement": "glycan array binding signal (z-score)", "setting": "GlcNAc(b1-6)GalNAc", "value": 0.771}, {"measurement": "glycan array binding signal (z-score)", "setting": "GlcNAc3Prop(b1-4)GlcNAc", "value": 0.018}, {"measurement": "glycan array binding signal (z-score)", "setting": "[11]", "value": -0.155}, {"measurement": "glycan array binding signal (z-score)", "setting": "Kdn(a2-3)Gal(b1-3)GalNAc", "value": 0.042}, {"measurement": "glycan array binding signal (z-score)", "setting": "Kdn(a2-3)Gal(b1-3)GlcNAc", "value": -0.186}, {"measurement": "glycan array binding signal (z-score)", "setting": "Kdn(a2-3)Gal(b1-4)Glc", "value": -0.186}, {"measurement": "glycan array binding signal (z-score)", "setting": "Kdn(a2-3)Gal(b1-4)GlcNAc", "value": -0.154}, {"measurement": "glycan array binding signal (z-score)", "setting": "[12]", "value": -0.192}, {"measurement": "glycan array binding signal (z-score)", "setting": "Kdn(a2-6)Gal(b1-4)GlcNAc", "value": -0.144}, {"measurement": "glycan array binding signal (z-score)", "setting": "[13]", "value": -0.15}, {"measurement": "glycan array binding signal (z-score)", "setting": "[14]", "value": -0.182}, {"measurement": "glycan array binding signal (z-score)", "setting": "Man(a1-2)Man(a1-3)Man", "value": -0.042}, {"measurement": "glycan array binding signal (z-score)", "setting": "[15]", "value": -0.167}, {"measurement": "glycan array binding signal (z-score)", "setting": "[16]", "value": -0.221}, {"measurement": "glycan array binding signal (z-score)", "setting": "[17]", "value": -0.148}, {"measurement": "glycan array binding signal (z-score)", "setting": "[18]", "value": -0.123}, {"measurement": "glycan array binding signal (z-score)", "setting": "[19]", "value": -0.129}, {"measurement": "glycan array binding signal (z-score)", "setting": "[20]", "value": -0.262}, {"measurement": "glycan array binding signal (z-score)", "setting": "Man(a1-3)[Man(a1-6)]Man", "value": -0.238}, {"measurement": "glycan array binding signal (z-score)", "setting": "[21]", "value": -0.226}, {"measurement": "glycan array binding signal (z-score)", "setting": "[22]", "value": -0.212}, {"measurement": "glycan array binding signal (z-score)", "setting": "[23]", "value": -0.251}, {"measurement": "glycan array binding signal (z-score)", "setting": "[24]", "value": -0.231}, {"measurement": "glycan array binding signal (z-score)", "setting": "Man(a1-6)Man", "value": -0.138}, {"measurement": "glycan array binding signal (z-score)", "setting": "Man(b1-4)GlcNAc", "value": -0.026}, {"measurement": "glycan array binding signal (z-score)", "setting": "Neu5Ac(a2-3)Gal", "value": -0.235}, {"measurement": "glycan array binding signal (z-score)", "setting": "[25]", "value": -0.223}, {"measurement": "glycan array binding signal (z-score)", "setting": "[26]", "value": -0.257}, {"measurement": "glycan array binding signal (z-score)", "setting": "[27]", "value": -0.26}, {"measurement": "glycan array binding signal (z-score)", "setting": "[28]", "value": -0.27}, {"measurement": "glycan array binding signal (z-score)", "setting": "[29]", "value": -0.137}, {"measurement": "glycan array binding signal (z-score)", "setting": "[30]", "value": -0.239}]}]}
